The results in this text go back to US20240294593A1 (Genentech, published 2024).

B1: H1.175_L1.135 (XENP30488) (Fc fusion)
chain 1: ITCPPPMSVEHADIWVKSYSLYSRERYICNSGFKRKAGTSSLTECVLNKATNVAHWTTPSLKCIRGGGGSGGGGSGGGGSGGGGSGGGGS[not shown - about 120 residues]EPKSSDKTHTCPPCPAPPVAGPSVFLFPPKPKDTLMISRTPEVTCVVVDVKHEDPEVKFNWYVDGVEVHNAKTKPREEEYNSTYRVVSVLTVLHQDWLNGKEYKCKVSNKALPAPIEKTISKAKGQPREPQVYTLPPSREEMTKNQVSLTCDVSGFYPSDIAVEWESDGQPENNYKTTPPVLDSDGSFFLYSKLTVDKSRWEQGDVFSCSVMHEALHNHYTQKSLSLSPGK
chain 2: EVQLVESGGGLVQPGGSLRLSCAASGFTFSSLGMHWVRQAPGKGLEWVSYISGGSSIIYYADSVKGRFTISRDNAKNSLYLQMNSLRAEDTAVYYCARGGWLVWSPDYWGQGTLVTVSSASTKGPSVFPLAPSSKSTSGGTAALGCLVKDYFPEPVTVSWNSGALTSGVHTFPAVLQSSGLYSLSSVVTVPSSSLGTQTYICNVNHKPSNTKVDKKVEPKSCDKTHTCPPCPAPPVAGPSVFLFPPKPKDTLMISRTPEVTCVVVDVKHEDPEVKFNWYVDGVEVHNAKTKPREEQYNSTYRVVSVLTVLHQDWLNGKEYKCKVSNKALPAPIEKTISKAKGQPREPQVYTLPPSREQMTKNQVKLTCLVKGFYPSDIAVEWESNGQPENNYKTTPPVLDSDGSFFLYSKLTVDKSRWQQGNVFSCSVMHEALHNHYTQKSLSLSPGK
chain 3: DIVMTQSPDSLAVSLGERATINCKSSQSLLHSGNQYNYLTWYQQKPGQPPKLLIYWASTRESGVPDRFTGSGSGTDFTLTISSLQAEDVAVYYCQNDYSYPFTFGSGTKLEIKRTVAAPSVFIFPPSDEQLKSGTASVVCLLNNFYPREAKVQWKVDNALQSGNSQESVTEQDSKDSTYSLSSTLTLSKADYEKHKVYACEVTHQGLSSPVTKSFNRGEC
notes: also called mAb C H1.175_L1.135 x IL-15(N4D/N65D)
B2: H1_L1.136 (XENP30445) (Fc fusion)
chain 1: ITCPPPMSVEHADIWVKSYSLYSRERYICNSGFKRKAGTSSLTECVLNKATNVAHWTTPSLKCIRGGGGSGGGGSGGGGSGGGGSGGGGS[not shown - about 120 residues]EPKSSDKTHTCPPCPAPPVAGPSVFLFPPKPKDTLMISRTPEVTCVVVDVKHEDPEVKFNWYVDGVEVHNAKTKPREEEYNSTYRVVSVLTVLHQDWLNGKEYKCKVSNKALPAPIEKTISKAKGQPREPQVYTLPPSREEMTKNQVSLTCDVSGFYPSDIAVEWESDGQPENNYKTTPPVLDSDGSFFLYSKLTVDKSRWEQGDVFSCSVMHEALHNHYTQKSLSLSPGK
chain 2: B1 chain 2 with L32F, G53S, W101R
chain 3: B1 chain 3 with Y36K, S99T
notes: also called mAb C H1_L1.136 x IL-15(D30N/N65D)
B3: H1.19_L1.1 (XENP30275) (Fc fusion)
chain 1: ITCPPPMSVEHADIWVKSYSLYSRERYICNSGFKRKAGTSSLTECVLNKATNVAHWTTPSLKCIRGGGGSGGGGSGGGGSGGGGSGGGGS[not shown - about 120 residues]EPKSSDKTHTCPPCPAPPVAGPSVFLFPPKPKDTLMISRTPEVTCVVVDVKHEDPEVKFNWYVDGVEVHNAKTKPREEEYNSTYRVVSVLTVLHQDWLNGKEYKCKVSNKALPAPIEKTISKAKGQPREPQVYTLPPSREEMTKNQVSLTCDVSGFYPSDIAVEWESDGQPENNYKTTPPVLDSDGSFFLYSKLTVDKSRWEQGDVFSCSVMHEALHNHYTQKSLSLSPGK
chain 2: B1 chain 2 with G53S, W101R
chain 3: B1 chain 3 with Y36K
notes: also called mAb C H1.19_L1.1 x IL-15(D30N/N65D)
B4: H1_L1.135 (XENP30444) (Fc fusion)
chain 1: ITCPPPMSVEHADIWVKSYSLYSRERYICNSGFKRKAGTSSLTECVLNKATNVAHWTTPSLKCIRGGGGSGGGGSGGGGSGGGGSGGGGS[not shown - about 120 residues]EPKSSDKTHTCPPCPAPPVAGPSVFLFPPKPKDTLMISRTPEVTCVVVDVKHEDPEVKFNWYVDGVEVHNAKTKPREEEYNSTYRVVSVLTVLHQDWLNGKEYKCKVSNKALPAPIEKTISKAKGQPREPQVYTLPPSREEMTKNQVSLTCDVSGFYPSDIAVEWESDGQPENNYKTTPPVLDSDGSFFLYSKLTVDKSRWEQGDVFSCSVMHEALHNHYTQKSLSLSPGK
chain 2: B1 chain 2 with L32F, G53S, W101R
chain 3: B1 chain 3
notes: also called mAb C H1_L1.135 x IL-15(D30N/N65D)
B5: H1.169_L1.1 (XENP30273) (Fc fusion)
chain 1: ITCPPPMSVEHADIWVKSYSLYSRERYICNSGFKRKAGTSSLTECVLNKATNVAHWTTPSLKCIRGGGGSGGGGSGGGGSGGGGSGGGGS[not shown - about 120 residues]EPKSSDKTHTCPPCPAPPVAGPSVFLFPPKPKDTLMISRTPEVTCVVVDVKHEDPEVKFNWYVDGVEVHNAKTKPREEEYNSTYRVVSVLTVLHQDWLNGKEYKCKVSNKALPAPIEKTISKAKGQPREPQVYTLPPSREEMTKNQVSLTCDVSGFYPSDIAVEWESDGQPENNYKTTPPVLDSDGSFFLYSKLTVDKSRWEQGDVFSCSVMHEALHNHYTQKSLSLSPGK
chain 2: B1 chain 2 with W101R
chain 3: B1 chain 3 with Y36K
notes: also called mAb C H1.169_L1.1 x IL-15(N4D/N65D)
B6: H1.132_L1.135 (XENP30486) (Fc fusion)
chain 1: ITCPPPMSVEHADIWVKSYSLYSRERYICNSGFKRKAGTSSLTECVLNKATNVAHWTTPSLKCIRGGGGSGGGGSGGGGSGGGGSGGGGS[not shown - about 120 residues]EPKSSDKTHTCPPCPAPPVAGPSVFLFPPKPKDTLMISRTPEVTCVVVDVKHEDPEVKFNWYVDGVEVHNAKTKPREEEYNSTYRVVSVLTVLHQDWLNGKEYKCKVSNKALPAPIEKTISKAKGQPREPQVYTLPPSREEMTKNQVSLTCDVSGFYPSDIAVEWESDGQPENNYKTTPPVLDSDGSFFLYSKLTVDKSRWEQGDVFSCSVMHEALHNHYTQKSLSLSPGK
chain 2: B1 chain 2 with L32F, G53S
chain 3: B1 chain 3
notes: also called mAb C H1.132_L1.135 x IL-15(N4D/N65D)
B7: H1.175_L1.1 (XENP30274) (Fc fusion)
chain 1: ITCPPPMSVEHADIWVKSYSLYSRERYICNSGFKRKAGTSSLTECVLNKATNVAHWTTPSLKCIRGGGGSGGGGSGGGGSGGGGSGGGGS[not shown - about 120 residues]EPKSSDKTHTCPPCPAPPVAGPSVFLFPPKPKDTLMISRTPEVTCVVVDVKHEDPEVKFNWYVDGVEVHNAKTKPREEEYNSTYRVVSVLTVLHQDWLNGKEYKCKVSNKALPAPIEKTISKAKGQPREPQVYTLPPSREEMTKNQVSLTCDVSGFYPSDIAVEWESDGQPENNYKTTPPVLDSDGSFFLYSKLTVDKSRWEQGDVFSCSVMHEALHNHYTQKSLSLSPGK
chain 2: B1 chain 2
chain 3: B1 chain 3 with Y36K
notes: also called mAb C H1.175_L1.1 x IL-15(N4D/N65D)
B8: XENP30046 ([NC]PD-1-targeted IL-15/Rα-Fc comprising mAb C_H1_L1.1 and IL-15(N4D/N65D) variant) (Fc fusion)
chain: ITCPPPMSVEHADIWVKSYSLYSRERYICNSGFKRKAGTSSLTECVLNKATNVAHWTTPSLKCIRGGGGSGGGGSGGGGSGGGGSGGGGS[not shown - about 120 residues with changes]EPKSSDKTHTCPPCPAPPVAGPSVFLFPPKPKDTLMISRTPEVTCVVVDVKHEDPEVKFNWYVDGVEVHNAKTKPREEEYNSTYRVVSVLTVLHQDWLNGKEYKCKVSNKALPAPIEKTISKAKGQPREPQVYTLPPSREEMTKNQVSLTCDVSGFYPSDIAVEWESDGQPENNYKTTPPVLDSDGSFFLYSKLTVDKSRWEQGDVFSCSVMHEALHNHYTQKSLSLSPGK
heavy: B1 chain 2 with L32F, G53S, W101R
light: B1 chain 3 with Y36K
notes: scIL-15/Rα x Fab format

Where a chain is given by its changes, count along the chain named. In names and notes the source's numbering stands.

What is called Kd is the constant that tells how readily two partners part at equilibrium. Broadly, the koff is a measure of how fast the partners let go of each other. The low end stands for a long-lived complex, the high end for a short-lived complex. For orientation: kon means the second-order rate constant of association. Lower therefore signals slower complex formation.

For the first experiment, the target named is T1, human PD-1-His (human, UniProt Q15116 partial chain, limits assumed).
T1 construct: Antigen of the Octet assays; not shown: His tag
As to the kind of experiment: Octet. A general note: BLI is a label-free optical method that tracks binding on a fibre tip over time.
The molecule B1 had a dissociation constant Kd of 0.697 nM, a koff of 8.33e-05 s⁻¹ and a kon of 120000 M⁻¹ s⁻¹.

Consider B2, for which binding was put at a Kd of 2.02 nM, the koff was 0.000121 s⁻¹ and the kon is 59800 M⁻¹ s⁻¹.

B3 gave a Kd of 4.35 nM, a koff of 0.000272 s⁻¹ and a kon of 62600 M⁻¹ s⁻¹.

In the case of B4, the Kd was 2.84 nM, the off-rate (koff) turned out to be 0.0002 s⁻¹ and the kon came out at 70200 M⁻¹ s⁻¹.

As to B5, the dissociation constant Kd amounted to 3.1 nM, the koff was found to be 0.000193 s⁻¹ and the kon was 62000 M⁻¹ s⁻¹.

Consider B6, for which the Kd was determined as 0.828 nM, the koff was 0.000112 s⁻¹ and the kon was determined as 136000 M⁻¹ s⁻¹.

As to B7, the Kd turned out to be 1.24 nM, the koff turned out to be 0.000118 s⁻¹ and the kon was determined as 95000 M⁻¹ s⁻¹.

The target of another experiment is T1, human PD-1-His. As to the kind of experiment: Octet. This is another data set of the same source.
T1 sequence (Q15116 25-167 limits assumed): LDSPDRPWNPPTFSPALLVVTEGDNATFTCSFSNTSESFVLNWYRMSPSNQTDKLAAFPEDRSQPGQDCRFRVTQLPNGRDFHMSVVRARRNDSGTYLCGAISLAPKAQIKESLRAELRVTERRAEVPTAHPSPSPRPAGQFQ
In turn, B8 registered a koff of 0.000488 s⁻¹ and an association rate constant (kon) of 90400 M⁻¹ s⁻¹.
